# In all, about 33,000 sequences were measured (“E-score (-0.5 to 0.5)”: median about -0.012, highest 2% from about 0.27 on). The list shows a part of the results.
# Target: T1, Vhr1 (UniProt P40522)
# T1 sequence: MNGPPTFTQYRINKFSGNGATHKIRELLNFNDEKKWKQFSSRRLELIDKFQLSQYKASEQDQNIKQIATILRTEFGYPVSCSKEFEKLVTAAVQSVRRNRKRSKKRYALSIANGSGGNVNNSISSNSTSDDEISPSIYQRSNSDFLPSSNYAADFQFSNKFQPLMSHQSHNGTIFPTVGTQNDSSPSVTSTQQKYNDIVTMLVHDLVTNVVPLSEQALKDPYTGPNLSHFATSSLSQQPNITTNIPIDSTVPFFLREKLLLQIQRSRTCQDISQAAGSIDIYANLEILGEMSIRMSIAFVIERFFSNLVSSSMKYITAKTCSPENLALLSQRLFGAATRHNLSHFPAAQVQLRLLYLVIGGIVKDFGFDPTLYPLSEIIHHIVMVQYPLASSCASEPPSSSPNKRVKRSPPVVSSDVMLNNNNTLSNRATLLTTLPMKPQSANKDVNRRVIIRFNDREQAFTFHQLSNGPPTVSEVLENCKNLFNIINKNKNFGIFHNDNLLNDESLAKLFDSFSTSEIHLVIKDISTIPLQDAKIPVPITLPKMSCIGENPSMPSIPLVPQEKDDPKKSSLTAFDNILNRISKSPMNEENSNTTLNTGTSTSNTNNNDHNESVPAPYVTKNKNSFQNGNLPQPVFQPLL
# Test: PBM E-score (8-mer binding enrichment) (E-score (-0.5 to 0.5)); higher = stronger / more preferred TF binding; most listed sequences are background and not binding sites
# Conditions: protein concentration: 200 nM; construct: GST-full length
# Procedure, shortened: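 For each ungapped eight-base word taken together with its reverse complement, the Universal PBM Analysis Suite assigned an E-score. Binding data came from GST-tagged yeast transcription factors, applied at about 100-200 nM, on universal all-10-mer Agilent arrays made double-stranded by primer extension. Fluorescent anti-GST marked bound protein, and scans were normalised with masliner.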
row,Sequence,PBM E-score
1,TTAGCAAA,-0.0673
2,GACATAGA,0.029
3,CTCAAAAG,-0.0415
4,CGTATGCC,-0.195
5,TACCGCCA,0.0567
6,TGTACAAA,-0.0832
7,AGCTCTGC,-0.128
8,AGCTTGCG,-0.121
9,AATGTAGA,-0.123
10,AGAGTTAG,-0.0264
11,CTGTATAA,0.0752
12,ATTCATAG,0.0981
13,GCTTGTAC,0.155
14,CAATTGGC,-0.0522
15,ACCGAACA,0.056
16,CCGGAGCA,-0.14
17,GACTCTTA,0.266
18,CCCTGAAC,0.0992
19,CTCTGAGA,-0.00698
20,AGGCGTCC,-0.128
21,GGCGGAAC,-0.0937
22,CATCCAGC,0.11

row,Sequence,PBM E-score
1,CCATGGCC,-0.0122
2,AACAAAAG,-0.284
3,GAGCTAGA,-0.219
4,CGTGTATA,0.0286
5,ATAGCGCA,-0.186
6,ATGTCTTG,0.0571
7,AAGCGAAG,-0.0409
8,AGTGAATG,0.0791
9,ACAATCAT,0.231
10,GCGCAAGA,-0.063
11,TACGATCA,0.0675
12,CTGCCTTC,-0.238
13,GCTCACCC,0.265
14,CGGGTCAG,0.204
15,CGCGAAAG,-0.022
16,CTTACTAA,-0.123
17,GATGAGAC,0.118
18,CCTATTGA,-0.165
19,AGACCTAT,0.0289
20,AAGCCCAT,0.0871
21,AAGGCCAA,-0.346
22,AACATCAT,0.148

row,Sequence,PBM E-score
1,ACCGTCCG,-0.0548
2,AATTTTCA,-0.196
3,GACACTCA,0.0958
4,CCACTCTA,0.0236
5,AAATATTT,-0.35
6,CTGCTGGC,-0.145
7,TAATGCGA,0.0305
8,CTTTCACC,-0.204
9,ATATACCG,0.247
10,CGCAGCTA,0.0366
11,AGTACACC,0.103
12,ACTCCACT,-0.032
13,CTGCCAGA,-0.145
14,ACAGCTTG,0.0709
15,CCCGAACC,0.0864
16,CAAACCAG,0.0311
17,CCTAAGCC,-0.229
18,CACACGCA,0.116
19,CACACCGG,0.147
20,CCGGTGCG,0.186
21,CAGTGGTC,-0.0292
22,GGTCCTGA,0.0276

row,Sequence,PBM E-score
1,GGTAACAC,0.0705
2,CCTGGTAG,-0.0901
3,CCTTATAC,-0.0569
4,CAGTCACG,0.365
5,GACTAGAC,0.0254
6,CAAACACG,0.033
7,TGCGCTAA,0.0119
8,GCCGTTCC,-0.0727
9,GAAACCAC,0.0416
10,ACGTGCAA,-0.201
11,GTTACGAA,-0.147
12,CAGCCCGC,0.0872
13,AAACAATA,0.119
14,GTCTCGAA,-0.146
15,AGTCTCTC,0.0118
16,ATTGGCAG,0.0108
17,CAGCAAAG,-0.0331
18,TATCTTGA,-0.0235
19,ACGCTGCC,-0.0387
20,CTTGAACA,-0.209
